In PubChem BioAssay AID588855 (National Center for Advancing Translational Sciences (NCATS), 2011):
About 5,000 (1.2%) of roughly 410,000 compounds were called active. The inconclusive results got no clear call from the source; some entries with a clear call stand among them for comparison. The call rests on the fitted dose curve; in most records, active means well fitted inhibition curve with a large enough effect; inconclusive means small, poorly fitted or top-dose-only effect; inactive means no such curve, though single readings can be large or run the other way. Potencies of inconclusive entries are doubtful fits and often do not repeat.

Test: qHTS for Inhibitors of TGF-b; further: nearly all actives have a fitted effect of over 65% in size
Details: HepG2 CAGA-GFP TGF-b/SMAD3 reporter, GFP fluorescence, 18 h, TGF-beta stimulated, 500 pg/mL final; series mostly up to 46.1 µM
In short: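 HEPG2 CAGA-GFP reporter cells (1000/well, DMEM with 1% FBS) received compounds, then recombinant TGF-beta at 500 pg/mL final for 18 hours at 37 degrees C. Per-cell GFP summed per well was normalised to unstimulated and stimulated DMSO controls before curve fitting.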
Potency means the concentration at half of the fitted maximal effect; tags describe the fitted curve by direction and shape.

SMILES | Potency
O=C(Nc1nc(-c2ccco2)c(-c2ccco2)s1)c1cnccn1 | inconclusive: 14.1 µM [inhibitor, single point]
COc1cccc(CNC(=O)Nc2ccc3c(c2)N(C)C(=O)c2ccccc2S3)c1 | inconclusive: 35.5 µM [inhibitor, single point]
Cc1c(C(=O)Nc2ccc(C(=O)Nc3ccccc3)cc2)cccc1[N+](=O)[O-] | inactive
COc1ccc(-c2nnc(SCC(=O)O)n2Cc2ccccc2)cc1 | inactive
Cc1ccc(-c2nn3c(C)nnc3c3ccccc23)cc1S(=O)(=O)NC(C)(C)CO | inactive
CCOC(=O)CCCC(=O)Nc1ncnc2c1C(c1ccccc1)c1c(ccc3ccccc13)O2 (stereo not given) | inconclusive: 35.5 µM [inhibitor, single point]
COc1ccc(CNC(=O)C2CCN(c3nnc(C)c4c(C)n(-c5ccc(C)cc5)nc34)CC2)cc1 | inconclusive: 3.55 µM [inhibitor, single point]
CCCOc1ccc(C2NC(=O)NC2=O)cc1 (stereo not given) | inactive
CCCOc1ccc(F)cc1-c1cc(C(=O)NC2CCCCC2)[nH]n1 | inactive
CC1=NN(c2ccccc2)C(=O)/C1=C\C=C1\N(C)c2ccccc2C1(C)C | inactive
Cc1cc(-c2ccc(C)c(S(=O)(=O)NCC3CCN(Cc4cccc(F)c4)CC3)c2)on1 | inconclusive: 20 µM [inhibitor, single point]
Fc1ccc(N/N=C(/c2ccccc2)c2ccccn2)cc1 | inconclusive: 35.5 µM [inhibitor, single point]
CCc1nc(C)cc(N)c1OCc1ccccc1 | inactive
COc1ccc(C2CC(c3ccccc3Cl)=NN2c2ccc(S(N)(=O)=O)cc2)cc1 (stereo not given) | inconclusive: 25.1 µM [inhibitor, single point]
O=C(CCCOc1ccc(Cl)cc1)N1CCCCC1 | inactive
CCOC(=O)N1CCN(C(=O)Cn2nc(C)c3sc4ccccc4c3c2=O)CC1 | inconclusive: 15.8 µM [inhibitor, single point]
O=C(/C=C/Nc1ccccc1F)c1ccc(Br)cc1 | inactive
CCCSc1nnc2n(C)c(=O)c3c4c(sc3n12)CCC4 | inactive
Cc1ccc(NC(=O)c2c(C)oc3ncnc(N4CCCCC4)c23)c(C)c1 | inconclusive: 8.91 µM [inhibitor, partial curve, poor fit]
COc1ccccc1C1=CC(=O)C[C@H](c2ccc(Cl)cc2)C1 | inconclusive: 35.5 µM [inhibitor, single point]
CN1CCN(C(=O)c2cccc(-c3cc(O)c4ncccc4c3)c2)CC1 | inactive
N#Cc1nc(Cc2cccc3ccccc23)oc1NCc1ccc2c(c1)OCO2 | inconclusive: 35.5 µM [inhibitor, single point]
O=C1Cc2c([nH]c3ccc([N+](=O)[O-])cc23)-c2ccccc2N1 | active: 0.501 µM
COc1ccc(CNC(=O)Cc2ccc(NC(=O)N3CCCCc4ccccc43)cc2)cc1 | inactive

SMILES | Potency
CN(CC(=O)Nc1cccc(F)c1)C(=O)c1cccc(S(=O)(=O)N2CCN(c3ccccc3)CC2)c1 | inconclusive: 7.08 µM [inhibitor, partial curve, poor fit]
CCCCCCn1c(=O)n2n(c1=O)C[C@]1(OC(=O)Nc3cccs3)CN(S(=O)(=O)c3ccc(C)cc3)C[C@]1(O)C2 | inconclusive: 17.8 µM [inhibitor, single point]
CN(c1ccc(O)cc1)S(=O)(=O)c1ccc2ccccc2c1 | inactive
Cc1ccc(C=Nc2ccc(N(C)C)cc2)o1 | inconclusive: 35.5 µM [inhibitor, single point]
COC[C@H](NS(=O)(=O)c1ccc(Br)cc1F)[C@@H](O)c1ccccc1 | inactive
CC1CCCN(c2ncnc3c2nnn3C)C1 (stereo not given) | inactive
Cc1c(Cc2ccc3c(c2)OCO3)sc(NC(=O)c2cccc3ccccc23)c1C(N)=O | inconclusive: 35.5 µM [inhibitor, partial curve, poor fit]
CC(=O)c1ccc(Nc2nc(-c3ccccc3)nc3ccccc23)cc1 | inactive
CCCOC(=O)c1cccc(Nc2nc(C(=O)OCC)nc3ccccc23)c1 | inconclusive: 35.5 µM [inhibitor, partial curve, poor fit]
O=C(Nc1ccc(C(F)(F)F)cc1)C1(c2cccs2)CCOCC1 | inactive
Cc1ccc(NCc2ccc([N+](=O)[O-])s2)cc1 | inconclusive: 35.5 µM [inhibitor, single point]
Cc1nc2nc(C)c(NS(=O)(=O)c3ccc4c(c3)CCCC4)c(=O)n2[nH]1 | inactive
FC(F)(F)c1cnc(NNC(=S)Nc2cccnc2)c(Cl)c1 | inconclusive: 6.31 µM [inhibitor, single point]
O=C(CCS(=O)(=O)c1nc(-c2ccc3c(c2)OCO3)cc(C(F)(F)F)n1)Nc1ccccc1C(F)(F)F | inconclusive: 11.2 µM [inhibitor, partial curve, poor fit]
Nc1nc(Nc2cccc(F)c2)nc(NCc2ccco2)c1[N+](=O)[O-] | inconclusive: 35.5 µM [inhibitor, single point]
O=C(Nc1cc(Cl)ccc1Cl)C1CCCO1 (stereo not given) | inconclusive: 2.51 µM [inhibitor, partial curve, poor fit]
O=C(NC(Cc1ccccc1)C(=O)Oc1ccc2c(C(F)(F)F)cc(=O)oc2c1)OCc1ccccc1 (stereo not given) | inconclusive: 3.16 µM [inhibitor, single point]
Cc1cc(/C=C2\SC(=Nc3ccccc3)NC2=O)c(C)n1-c1ccc(S(N)(=O)=O)cc1 | active: 12.6 µM
Cc1nnc(NC(=O)CCn2c(=O)oc3ccccc32)s1 | inactive
CCOc1ccc(CNC(=O)c2ccc(Sc3ccc(C)cc3)c(N)c2)cc1OC | inconclusive: 14.1 µM [inhibitor, single point]
Cc1cc2cc(C)c(NCCNC(=O)c3ccccc3)nc2cc1C | inconclusive: 35.5 µM [inhibitor, single point]
CCn1c(=O)c2cc(C(=O)NCCc3ccc(OC)c(OC)c3)sc2c2ccccc21 | inconclusive: 3.55 µM [inhibitor, full curve, poor fit]
CCN(CC(=O)Nc1ccc(NC(C)=O)cc1)C(=O)c1cc(CN2C(=O)c3ccccc3C2=O)ccc1OC | inconclusive: 6.31 µM [inhibitor, single point]
C/C(=N\N=c1/sc2ccccc2n1C)c1ccc(N2CCOCC2)cc1 | inconclusive: 0.501 µM [inhibitor, partial curve, poor fit]

SMILES | Potency
COc1cc(S(=O)(=O)O)c(C)cc1N=Nc1c(O)ccc2cc(S(=O)(=O)O)ccc12 | inactive
CC(C)CN(CC(C)C)c1nnc(NC(=O)Nc2cccc(C(F)(F)F)c2)s1 | inconclusive: 2.51 µM [inhibitor, partial curve, poor fit]
COc1cccc(CNn2c(-c3cccc(C)c3)nc3ccccc3c2=O)c1 | inconclusive: 15.8 µM [inhibitor, single point]
COc1cccc(Nc2nc(C(N)C3CCCCC3)cs2)n1 (stereo not given) | inconclusive: 22.4 µM [inhibitor, single point]
COc1ccc(-c2oc3ncnc(NCCCO)c3c2-c2ccc(OC)cc2)cc1 | inconclusive: 12.6 µM [inhibitor, partial curve, poor fit]
Cc1csc(NC(=O)CN2C(=O)c3ccccc3C2=O)c1C(N)=O | inactive
Cc1cccc(OCC(=O)Nc2cc(S(=O)(=O)N3CCCCC3)ccc2N2CCN(C)CC2)c1 | inactive
CC(C)(C)OC(=O)COc1cc(F)ccc1[N+](=O)[O-] | inconclusive: 6.31 µM [inhibitor, single point]
Cc1ccc(Cl)c(OC(=O)c2ccc(N3CCOCC3)c([N+](=O)[O-])c2)c1 | inactive
O=C1c2cc(S(=O)(=O)NCCO)ccc2-c2ccc(S(=O)(=O)NCCO)cc21 | inactive
Cc1cc(C)c2c(N)c(C(=O)Nc3ccc([N+](=O)[O-])cc3)sc2n1 | inactive
O=C(NNC(=O)c1ccccc1O)c1ccc(Br)cc1 | inactive
O=C(CC1C(=O)N(Cc2ccccc2)C(=S)N1CCN1CCOCC1)Nc1ccc(F)cc1 (stereo not given) | inconclusive: 35.5 µM [inhibitor, single point]
O=C(NNC(=O)c1ccc(=O)[nH]c1)c1ccc(NS(=O)(=O)c2cccs2)cc1 | inactive
COc1ccc(CNC(=O)[C@H](C)NC(=O)C2CCN(C(=O)[C@@H](N)Cc3ccccc3)CC2)cc1 | inactive
CCOc1ccc(N(CC(=O)Nc2cc(C)cc(C)c2)S(C)(=O)=O)cc1 | inconclusive: 10 µM [inhibitor, partial curve, poor fit]
Cc1oc(-c2ccccc2)nc1Cn1c(=O)cc(-c2ccccc2)c2c(C)nn(C)c21 | inactive
Cc1cccc(C)c1NC(=O)CN(C)CC(=O)N1CC(=O)Nc2ccccc21 | inconclusive: 2.82 µM [inhibitor, partial curve, poor fit]
CC(=O)N1CCc2cc(NC(=O)C3(C)CCN3Cc3ccc(C(C)C)cc3)ccc21 (stereo not given) | inconclusive: 28.2 µM [inhibitor, single point]
CCCn1c(CNc2ccccc2O)nc2ccccc21 | inconclusive: 12.6 µM [inhibitor, partial curve, poor fit]
CCCOc1ccc(N2C(=O)CC(NNC(=O)c3ccc(COc4ccccc4)o3)C2=O)cc1 (stereo not given) | inconclusive: 12.6 µM [inhibitor, partial curve, poor fit]
COc1ccc(/C=N/OCC(=O)NC(c2ccccc2)c2ccccc2)c(OC)c1 | inconclusive: 15.8 µM [inhibitor, single point]
